PubChem BioAssay AID488969 (Vanderbilt High Throughput Screening Facility, 2010)
Whole data set: some 110,000 compounds, median “z-score” near -0.1, cut for the highest 2% near 2. This is one part of the list. Activity calls are given as the source filed them.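 Rule for the calls: active = z-score in the third read window above 3 or below -3; inactive = the rest.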

The compounds below were run against Metabotropic glutamate receptor 8 (Rattus norvegicus) (UniProt P70579) (assay: mGluR8 Gi/Go-coupled signaling modulation – cell-based, rat, thallium flux, HTS, primary screen (AID 488969)). Conditions: HEK293 rat mGluR8, GIRK (G protein-gated inwardly rectifying potassium channel) thallium flux, FluoZin2; at 10 µM; stronger effect = higher value; submaximal glutamate (EC20) added with thallium.
UniProt P70579, sequence (P70579 whole entry, looked up): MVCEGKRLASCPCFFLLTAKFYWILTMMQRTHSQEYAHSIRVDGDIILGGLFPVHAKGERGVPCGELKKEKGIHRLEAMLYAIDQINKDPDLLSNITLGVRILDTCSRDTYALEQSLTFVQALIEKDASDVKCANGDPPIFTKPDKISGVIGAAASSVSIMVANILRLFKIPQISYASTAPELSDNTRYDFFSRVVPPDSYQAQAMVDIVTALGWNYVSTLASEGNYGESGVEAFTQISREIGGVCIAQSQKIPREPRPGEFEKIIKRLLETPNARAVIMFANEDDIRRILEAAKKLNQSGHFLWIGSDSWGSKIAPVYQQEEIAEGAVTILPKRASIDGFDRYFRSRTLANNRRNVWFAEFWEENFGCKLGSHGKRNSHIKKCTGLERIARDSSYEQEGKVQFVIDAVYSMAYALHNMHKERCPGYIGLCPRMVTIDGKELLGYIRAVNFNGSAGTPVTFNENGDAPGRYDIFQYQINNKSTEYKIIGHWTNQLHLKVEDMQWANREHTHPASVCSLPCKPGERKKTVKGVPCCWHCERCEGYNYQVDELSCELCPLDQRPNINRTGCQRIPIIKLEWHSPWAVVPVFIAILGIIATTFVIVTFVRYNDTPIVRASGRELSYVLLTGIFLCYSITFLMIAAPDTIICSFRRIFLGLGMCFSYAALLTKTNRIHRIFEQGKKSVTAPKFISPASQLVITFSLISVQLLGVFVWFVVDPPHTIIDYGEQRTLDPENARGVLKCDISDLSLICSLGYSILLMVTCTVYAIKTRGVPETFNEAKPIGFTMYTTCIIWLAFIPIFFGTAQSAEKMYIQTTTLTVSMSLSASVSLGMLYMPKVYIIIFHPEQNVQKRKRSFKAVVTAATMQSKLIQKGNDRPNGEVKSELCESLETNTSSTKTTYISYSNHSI
Cc1ccc(/C=N/n2c(=O)c(C(C)(C)C)nn3cnnc23)cc1 gave a z-score of -0.242.
For O=C(CSc1nc(N2CCCCC2)nc(N2CCCCC2)n1)N1CCc2ccccc21, the z-score was -0.251.
Cc1cccc(C(=O)N2c3ccccc3C(=O)OC2c2ccc3c(c2)OCO3)c1 (configuration not stated) showed a z-score of -0.842.
Compound Cc1ccccc1N1CC(O)(c2ccccc2)[N+]2=C1SCC2 (configuration not stated) has a z-score of -0.424.
Compound CNC(=O)C1=C(C)NC(=S)NC1c1cc2c(cc1OC)CCCC2 (configuration not stated) has a z-score of -0.175.
O=C(N/N=C/c1c[nH]c2ccc(Br)cc12)c1ccn(Cc2ccc(Cl)cc2)n1 showed a z-score of -0.0795.
COc1ccccc1Nc1ccc(S(=O)(=O)N2CCCCC2)cc1[N+](=O)[O-] was tested, and the z-score was -0.0524.
COCCn1c(SCC(=O)Nc2ccc(NC(=O)c3ccco3)c(OC)c2)nc2ccccc2c1=O gave a z-score of -0.361.
CCOc1ccc(C(CCc2ccccc2)NC(=O)c2ccccc2OC)cc1OCC (configuration not stated) showed a z-score of -0.472.
With CCc1cccc(NS(=O)(=O)c2c(C)n[nH]c2C)c1 the z-score was -0.174.
In the case of N=c1c2c(-c3ccccc3)c(-c3ccccc3)n(Cc3ccco3)c2ncn1Cc1ccccc1, the z-score is reported as 0.528.
Work on CS(=O)(=O)N(CC(=O)N1CCCC1)c1ccc(Cl)c(Cl)c1 yielded a z-score of -0.0333.
In the case of O=[N+]([O-])c1c(Nc2ccc(O)cc2)cc(N2CCOCC2)c2nonc12, the z-score is reported as 0.274.
Cc1cc(C)n(C(=O)CCC(=O)NCc2ccccc2)n1 was tested, and the z-score was -0.571.
O=C(c1ccco1)N1CCN(S(=O)(=O)c2ccc(S(=O)(=O)NC3CCCCC3)cc2)CC1 was tested, and the z-score was 0.85.
In the case of Cc1ccc(N(C(=O)c2cccs2)C2C=CS(=O)(=O)C2)cc1 (configuration not stated), the z-score is reported as -0.179.
Compound COc1ccc(CN(C(=O)CO/N=C/c2ccccc2)c2ccccc2C(=O)O)cc1 has a z-score of -0.413.
For COc1ccccc1CNC(=O)CCn1c(=O)sc2ccccc21, the z-score was -0.0788.
Compound Cn1cnnc1SCC(=O)Nc1ccccc1C(=O)NC1CC1 has a z-score of -0.145.
CSc1ccccc1C(=O)Nc1ccc(C)c(C)c1 gave a z-score of -0.333.
Cc1ccc(C(=O)NC(=S)Nc2ccc(NC(=O)c3cccc(Cl)c3)cc2)cc1 showed a z-score of -0.278.
CCCONC(=O)Nc1ccccc1[N+](=O)[O-] was tested, and the z-score was -0.204.
O=C1NN(c2ccccc2)C(=O)C2C1C1C=CC2C12CC2 (configuration not stated) was tested, and the z-score was 0.0539.
Work on Cc1cccc(N2C(=O)c3cccc(Oc4ccc(Cl)cc4)c3C2=O)c1 yielded a z-score of -0.0858.
Cc1ccc(NC(=O)C2CCCN2C(=O)Oc2ccccc2)cc1C (configuration not stated) gave a z-score of -0.375.
CC(=O)Nc1n[nH]c(S(=O)(=O)Cc2ccc(Cl)cc2Cl)n1 gave a z-score of -0.0134.
COc1ccc(N2CCN(CCCNC(=O)CCCn3c(=O)[nH]c4ccsc4c3=O)CC2)cc1 gave a z-score of 1.23.
CCCc1cc2c(=O)c(-c3ccc4c(c3)OCCO4)coc2cc1OC(=O)c1ccco1 showed a z-score of -0.0335.
Compound CCCCSc1nc(NCc2ccco2)c2c3c(sc2n1)COC(C)(C)C3 has a z-score of -0.404.
For Cc1noc(C)c1C(=O)OCC(=O)Nc1cccc(S(=O)(=O)N(C)C)c1, the z-score was -0.164.
O=C(CSCc1ccc([N+](=O)[O-])cc1)Nc1cccc(C(=O)Nc2ccccc2C(=O)O)c1 gave a z-score of -0.965.
In the case of CCCCc1cc2c(c(NC(=O)CC)n1)c(=O)oc1ccccc12, the z-score is reported as -0.342.
Work on Cc1ccc(C)c(N(C(=O)CS(=O)CC(=O)Nc2ccc3c(c2)OCO3)C(C)C(=O)NC2CCCC2)c1 (configuration not stated) yielded a z-score of 0.0572.
O=C(CCC(=O)OCc1ccc(C(=O)Oc2ccc(Cl)cc2)cc1)Nc1ccccc1 gave a z-score of -0.077.
Cc1cc(=O)oc2c1c(C)nn2-c1nn[nH]n1 gave a z-score of 0.873.
O=C(COc1ccc(S(=O)(=O)NC2CCCCC2)cc1)Nc1ccc2c(c1)OCCO2 gave a z-score of -0.0244.
With Cc1cc(NC(=O)CSCc2nc(-c3cccc(F)c3)oc2C)no1 the z-score was -0.234.
CCCN(CCC)C(=O)Cc1coc2ccc3ccccc3c12 showed a z-score of -0.408.
Compound NC(=O)CN1C(=O)C2C3C=CC(C3)C2C1=O (configuration not stated) has a z-score of 0.92.
For CCOC(=O)C1=C(c2ccccc2)N=c2s/c(=C\c3cccc(O)c3)c(=O)n2C1c1cccs1 (configuration not stated), the z-score was -0.249.
O=C(Nc1nnc(SCc2c(Cl)cccc2Cl)s1)C1CCCO1 (configuration not stated) gave a z-score of -0.569.
O=C(Nc1cccnc1)c1cc(-c2ccco2)on1 gave a z-score of -0.416.
In the case of COc1cccc(/C=N/NC(=O)c2[nH]c(C)c(C(=O)N/N=C/c3cccc(OC)c3O)c2C)c1O, the z-score is reported as -0.319.
COc1ccc(OCCCC(=O)Nc2cccc(C(C)=O)c2)cc1 gave a z-score of -0.154.
COc1ccc(C(O)C(CN2CCOCC2)c2ccccc2)cc1F (configuration not stated) was tested, and the z-score was 0.257.
Cc1c(C(=O)NCCC2=CCCCC2)oc2ccc(S(=O)(=O)N3CCC4(CC3)OCCO4)cc12 gave a z-score of 0.452.
With O=C(O)C1CCCCC1C(=O)N1CC=C(c2ccccc2)CC1 (configuration not stated) the z-score was 0.767.
With Cc1ccccc1C(=O)Nc1cccc(NC(=S)NC(=O)c2cccs2)c1 the z-score was -0.348.
O=S(=O)(Nc1nc2ccccc2nc1NCc1ccco1)c1ccc(Cl)cc1 showed a z-score of -0.195.
CCC(C)(C)NC(=O)C(c1ccccc1)N(Cc1cccs1)C(=O)Cn1nnc2ccccc21 (configuration not stated) was tested, and the z-score was 0.0386.
Cc1onc(-c2c(F)cccc2Cl)c1C(=O)N1C=CC(C(F)(F)F)=NCC1 gave a z-score of -0.013.
In the case of CCCc1cc(C(=O)NC2CCCC2)no1, the z-score is reported as 1.06.
For CN(C)CCNC(=O)C1CCCNC1=O (configuration not stated), the z-score was 0.0264.
Work on NC(=O)c1ccc(N2CCCCC2)c(N2C(=O)C3CC=CCC3C2=O)c1 (configuration not stated) yielded a z-score of 0.258.
O=C(CN1CCN(c2ncccn2)CC1)Nc1ccccc1-n1cccc1 was tested, and the z-score was -0.817.
With Cc1ccc(C(=O)N2CCN(c3ccc([N+](=O)[O-])c(N4CCOCC4)c3)CC2)cc1 the z-score was -0.394.
Cc1nn(-c2ccccc2)c(C)c1/C=N/Nc1nc2ccccc2[nH]1 gave a z-score of -0.376.
In the case of Cc1ccc(NC(=O)CSc2nnc(-c3ccco3)c(-c3ccco3)n2)cc1, the z-score is reported as -0.141.
With COc1nc(N(c2ccccc2)c2ccccc2)nc(-n2ccnc2)n1 the z-score was -2.75.
Compound COc1cc(C(=O)Nc2ccc(S(=O)(=O)Nc3nccc(C)n3)cc2)cc(OC)c1OC has a z-score of 0.00518.
CCOC(=O)C1=C(c2ccccc2)Nc2ncnn2C1c1ccc(OC)c(OC)c1OC (configuration not stated) was tested, and the z-score was -0.365.
With CSc1ccc(/C=C/C(=O)c2ccc(O)cc2)cc1 the z-score was 0.969.
In the case of COc1ccccc1CN1C(=O)CCC1(C)C(=O)NC1CCCCCC1 (configuration not stated), the z-score is reported as 0.277.
CNC(=S)N(Cc1ccc(OC)cc1)C1CC(=O)N(c2ccc(C(=O)OC)cc2)C1=O (configuration not stated) showed a z-score of -0.228.
In the case of CCOC(=O)N1CCN(c2c(F)cc3[nH]c(=S)[nH]c3c2Br)CC1, the z-score is reported as active: 6.26.
Work on CCOC(=O)c1c(NC(=O)c2c(C)noc2C)sc2c1CCCCC2 yielded a z-score of -0.649.
For O=C(Nc1ccc2oc(-c3ccccc3F)nc2c1)c1ncn[nH]1, the z-score was -0.429.
CCn1c(SCC(=O)NNC(=S)Nc2ccccc2)nnc1-c1ccc(Cl)cc1 was tested, and the z-score was -0.048.
Compound CCCc1cc(-c2nc(-c3ccc(Br)cc3)cs2)ccn1 has a z-score of 0.0465.
Work on Cc1cc(C(=O)COC(=O)CC2Sc3ccccc3NC2=O)c(C)n1-c1ccc2c(c1)OCO2 (configuration not stated) yielded a z-score of -0.474.
Work on Cn1cnnc1SCC(=O)Nc1ccccc1 yielded a z-score of -0.0644.
Compound CCCCC(=O)NC(=S)Nc1cc(C(=O)O)ccc1Cl has a z-score of -0.872.
O=C(COC(=O)C1CCC1)Nc1ccc(Oc2ccccc2)cc1 gave a z-score of 0.0229.
Cc1ccc2nc3c(cc2c1)c(NC(=O)c1cccnc1)nn3C was tested, and the z-score was 0.179.
Compound CS(=O)(=O)N(CC(=O)N1CCN(Cc2ccccc2)CC1)C1CCCCC1 has a z-score of -0.0513.
CCn1c(SCC(=O)C(C)(C)C)nnc1-c1ccccn1 showed a z-score of -0.225.
In the case of CCOc1ccc(NC(=O)Cn2nnc(-c3ccccc3NC(=O)c3cccs3)n2)cc1, the z-score is reported as -0.124.
CCOC(=O)C(NC(C)=O)(Nc1ccc(S(=O)(=O)Nc2ccncn2)cc1)C(F)(F)F (configuration not stated) was tested, and the z-score was -0.157.
CCOC(=O)C(C(=O)OCC)N(C#N)c1nc(C)cc(C)n1 showed a z-score of -0.0634.
CCCCNC(=S)NNC(=O)c1ccco1 showed a z-score of -0.0425.
With CCn1c(COc2ccccc2C)nnc1SCC(=O)NC1CCCC1 the z-score was -0.187.
Work on O=S(=O)(Nc1ccc(S(=O)(=O)N2CCCCCC2)cc1)c1cccs1 yielded a z-score of 1.03.
O=Cc1cccn1Cc1ccccc1[N+](=O)[O-] gave a z-score of 0.113.
Work on CCC(=O)Nc1nc(C)c(-c2csc(Nc3ccc(S(=O)(=O)Nc4cc(C)on4)cc3)n2)s1 yielded a z-score of -0.662.
With Cc1cccc(C)c1NC(=O)c1sccc1SCc1cccc(C(F)(F)F)c1 the z-score was 0.244.
OCCNCc1ccc(OC2CCCC2)cc1 showed a z-score of 0.000809.
For COc1cc(C2C(C(C)=O)=C(C)Nc3ncnn32)ccc1O (configuration not stated), the z-score was 0.195.
CC(=O)c1cccc(NC(=O)C2CCCN2S(=O)(=O)c2cccc3cccnc23)c1 (configuration not stated) was tested, and the z-score was active: 4.14.
Work on Cc1nnc(SCc2nc(N)nc(Nc3ccccc3)n2)s1 yielded a z-score of -0.209.
COCCn1cc(C(=S)N2CCOCC2)c2ccccc21 showed a z-score of 0.108.
COc1ccccc1C(OC(=O)c1ccco1)C(=O)NC(C)(C)C (configuration not stated) gave a z-score of -0.346.
CC1=CC(=O)C=C(C)C1=NOC(=O)c1cccc([N+](=O)[O-])c1 gave a z-score of -0.159.
O=C(NCCc1c[nH]c2ccc(Cl)cc12)c1cccnc1 gave a z-score of -0.113.
Cc1nn(-c2ccccn2)c2c1-c1nc(N3CCOCC3)ncc1CC2 was tested, and the z-score was 0.276.
Cn1c(=O)c2c(nc(N3CCc4ccccc4C3)n2Cc2ccc(Br)cc2)n(C)c1=O showed a z-score of 0.168.
In the case of Brc1ccc(/C=C/C=N/Nc2nc3ccccc3s2)cc1, the z-score is reported as -2.76.
Work on COc1cccc(Nc2ncccc2C(=O)Nc2ccccc2)c1 yielded a z-score of 0.231.
Cc1ccc(Cn2ncc3c(N4CCOCC4)ncnc32)cc1 was tested, and the z-score was 0.941.
Work on Cc1ccc(C(=O)N/C(=C/c2ccco2)C(=O)NCCc2c[nH]c3ccccc23)cc1C yielded a z-score of -0.366.
Work on CN1CCN(c2ccc(NC(=O)COc3ccccc3Cl)cc2)CC1 yielded a z-score of 0.89.
CCOC(=O)c1ccc(NC(=O)CSc2nnc(COc3ccccc3OC)n2C)cc1 was tested, and the z-score was 0.225.
O=C1NC(=O)c2c(NC(=O)C3CCCO3)cccc21 (configuration not stated) was tested, and the z-score was 0.0676.
CNS(=O)(=O)c1cccc(C(=O)OCC(=O)Nc2sc3c(c2C#N)CCCCC3)c1 showed a z-score of -0.236.
Work on CC1CCCCN1c1nnc(NC(=O)Cn2c(=O)oc3ccccc32)s1 (configuration not stated) yielded a z-score of -0.326.
In the case of CC(C)Oc1nc(-c2ccccc2O)nc2ccccc12, the z-score is reported as -0.0666.
CCOC(=O)N1CCN(C(=O)CCN2C(=O)COc3ccccc32)CC1 was tested, and the z-score was -0.301.
With COc1ccc(CCNC(=O)COC(=O)/C=C/c2ccc(OCC#N)c(OC)c2)cc1OC the z-score was -0.482.
